Structures are written as SMILES. The campaign covered roughly 52,000 compounds. About 4,300 (8.3%) were called active. Cut-off read from the data, not from the text of the source: active = survival mostly below about 52% (no sharp cut-off); inactive = mostly above about 56%. The list shows a part of the results.

The subject of this test is DeltatarO mutant. Nature of the test: S. aureus survival, RN4220 and DeltatarO strains – OD600, teichoic acid synthesis inhibitors, primary screen (AID 463173). The following applies: S. aureus RN4220 wild type/DeltatarO growth, OD600, 18 h, active compounds read low, screened at 18.75 µg/mL (by protocol).
For the molecule `O=C(c1ccc2c(c1)CCN2S(=O)(=O)c1ccc(Cl)cc1)N1CCN(c2ccccc2F)CC1`, the survival is inactive: 61%.

As to `COc1ccc(Nc2ncc(C(=O)N3CCN(c4ccc(OC)cc4)CC3)c3ccccc23)cc1`, the survival was inactive: 74%.

As to `Cc1cc(NC(=O)c2cc(-c3ccc(Cl)cc3)on2)n(-c2ccccc2)n1`, the survival is inactive: 62%.

As to `COc1ccc(CNC(=O)Cc2ccc(NC(=O)N3CCSc4ncccc43)cc2)cc1OC`, the survival was inactive: 88%.

As to `COC(=O)c1cc2oc3ccccc3c2n1CC(=O)Nc1ccc(C)c(F)c1`, the survival was inactive: 72%.

For the molecule `COc1ccc(-c2cc(C(=O)Nc3cccnc3)no2)cc1OC`, the survival is inactive: 79%.

As to `CC(C)c1nc2sc3c(c2c(=O)n1N)CC(C)(C)OC3`, the survival is inactive: 58%.

With `COc1cc(OC)c(NC(=O)c2cc3c(=O)oc4ccc(C)cc4c3s2)cc1Cl`, the survival was inactive: 66%.

Regarding `COc1cc(S(=O)(=O)N(Cc2cccnc2)Cc2ccco2)ccc1-n1cnnn1`, the survival is inactive: 99%.

On to `CCN(CC)CCNc1nc2c(c(=O)[nH]c(=O)n2C)n1Cc1ccccc1Cl`, for which the survival is inactive: 93%.

As for `Cc1ccc(-n2ncc3c(NCCO)ncnc32)cc1Cl`, the survival was inactive: 73%.

Regarding `Cn1c(CCCCN)nc2ccccc21`, the survival was inactive: 95%.

For `CC(C)c1ccc(NC(=O)C2CCN(S(=O)(=O)c3cccc4nonc34)CC2)cc1`, the survival is inactive: 108%.

For the molecule `Cc1ccccc1Nc1c(-c2ccc(Cl)cc2)nc2c(C)cccn12`, the survival is inactive: 69%.

In the case of `Cc1ccc(N2C(=O)CSC23C(=O)N(Cc2ccccc2F)c2ccccc23)cc1F` (stereo unspecified), the survival is inactive: 84%.

For the molecule `O=C(CN1C(=O)c2ccccc2C1=O)Nc1ccccc1C(=O)N1CCCC1`, the survival was inactive: 78%.

For `COc1ccc(NC(=O)Cn2c(=O)n(CCc3ccccc3)c(=O)c3c4c(sc32)CCCC4)cc1`, the survival is inactive: 93%.

In the case of `Cc1ccccc1NC(=O)CSc1cn(CC(=O)N2CCCCCC2)c2ccccc12`, the survival is inactive: 64%.

On to `COc1cc2c(=O)c(C(=O)c3ccc(C)c(C)c3)cn(Cc3ccc(F)cc3)c2cc1OC`, for which the survival was inactive: 75%.

Regarding `CCOc1ccccc1NC(=O)c1ccc2c(c1)CCN2S(=O)(=O)c1ccc(C)cc1`, the survival was inactive: 62%.

For the molecule `CCOC(=O)c1c(C)[nH]c(C)c1S(=O)(=O)NCC(=O)Nc1ccc(C)c(N(C)C)c1`, the survival was inactive: 54%.

Take `CCOc1cc(CNC(=O)Cn2c(=O)c3cccn3c3ccc(F)cc32)cc(OCC)c1OCC`: the survival was inactive: 50%.

With `CC(C)=NNC(=O)c1nnn(-c2nonc2N)c1CN1CCOCC1`, the survival is inactive: 96%.

As to `COc1c(C)cc(Br)cc1C(=O)Nc1ccc(-c2nc3ncccc3o2)cc1`, the survival is inactive: 50%.

As for `COc1cc(NC(=O)c2ccc3oc(=O)c(S(=O)(=O)c4ccccc4)cc3c2)cc(OC)c1`, the survival was inactive: 83%.

`COc1ccc(S(=O)(=O)Nc2cccc(-c3ccc(N4CCC(C)CC4)nn3)c2)c(OC)c1`: the survival is inactive: 79%.

For `CCOc1ccc(NC(=O)Cn2c(=O)n(-c3cccc(Cl)c3)c(=O)c3c2c2cc(C)ccc2n3C)cc1`, the survival is inactive: 147%.

As for `CCOc1cccc(C2c3[nH]c4ccccc4c3CCN2C(=O)CSc2ccccc2)c1` (stereo unspecified), the survival is inactive: 71%.

Regarding `Cc1cc(C(F)(F)F)c2c(N)c(C#N)sc2n1`, the survival is inactive: 84%.

For `Cc1cccc(C(=O)N2CCc3cc(CNC(=O)COc4ccc(Cl)cc4)ccc32)c1`, the survival is inactive: 54%.

Consider `COc1cccc(Cn2c(=O)cc(C)c3c(C)nn(C)c32)c1`, for which the survival is inactive: 89%.

As to `COc1ccc(C(=O)NCC(c2cccnc2)N2CCN(c3ccccc3)CC2)cc1` (stereo unspecified), the survival is inactive: 63%.

For `CCCc1nn2c(=O)cc(COC(=O)c3cccc(NC(=O)c4cccs4)c3)nc2s1`, the survival is inactive: 71%.

As to `CCc1cccc(C)c1NC(=O)CCS(=O)(=O)c1cc(Br)cc2c1N(C(=O)C1CC1)CC2`, the survival is inactive: 83%.

On to `Cc1c(Cl)cccc1NC(=O)Cn1c(=O)n(Cc2ccco2)c(=O)c2sc3ccccc3c21`, for which the survival is inactive: 135%.

As for `Cc1c(C(=O)NCc2ccc(Cl)cc2)sc2nc3n(c(=O)c12)CCCCC3`, the survival was active: 51%.

For the molecule `O=C(CCCCn1c(=O)c2ccccc2n(CC(=O)Nc2cccc(C(F)(F)F)c2)c1=O)NCc1ccc2c(c1)OCO2`, the survival was inactive: 84%.

On to `O=C(Nc1ccc(C(=O)OCc2cc(=O)n3c4c(sc3n2)CCCC4)cc1)c1ccc(F)cc1`, for which the survival was inactive: 101%.

In the case of `CCc1nn2c(-c3ccccc3OC)ccnc2c1-c1ccccc1`, the survival is active: 0%.

Regarding `COc1cc(NS(=O)(=O)c2ccc(NC(=O)c3cccc(F)c3)cc2)nc(OC)n1`, the survival was inactive: 97%.

As for `CCC1CN(S(=O)(=O)c2cc(-c3cc(C)no3)ccc2C)c2cc(Cl)ccc2O1` (stereo unspecified), the survival was inactive: 75%.

For `COc1cc(NC(=O)CC2C(=O)OCCN2Cc2ccccc2)cc(OC)c1` (stereo unspecified), the survival is inactive: 168%.

In the case of `CCN1CCN(CCCNC(=O)CS(=O)(=O)Cc2nc(-c3cccc(OC)c3)oc2C)CC1`, the survival is inactive: 80%.

In the case of `Cc1oc2ncnc(N3CCCCC3)c2c1C(=O)NCC1CCN(Cc2cccc(F)c2)CC1`, the survival is active: -5%.

Turning to `Cc1ccccc1NC(=O)c1ccc(F)c(S(=O)(=O)N2CCN(c3ccccc3F)CC2)c1`, the survival was inactive: 71%.

With `COc1ccc(-c2nc(CSc3nncn4c3cc3oc(C)cc34)c(C)o2)cc1`, the survival was inactive: 56%.

`O=C(NCCc1ccccc1)C(=O)NCC(c1ccco1)S(=O)(=O)c1cccs1` (stereo unspecified): the survival is inactive: 94%.

Take `Cc1ccc(-n2nnc(-c3nc(-c4cccs4)no3)c2N)cc1C`: the survival was inactive: 74%.

As for `COc1ccc(OC)c(CCNC(=O)c2ccc3c(c2)c(C)c(C)n3Cc2ccccc2)c1`, the survival was inactive: 79%.

As for `CCOC(=O)c1cnc2ccccc2c1NCCCN(C)C`, the survival is inactive: 94%.

For `COc1ccc(N=C2SC(C(N)=O)CC(=O)N2Cc2ccccc2)cc1` (stereo unspecified), the survival was inactive: 78%.

With `COc1ccc(NC(=O)CC2Nc3ccccc3NC2=O)cc1` (stereo unspecified), the survival is active: 61%.

On to `COc1ccc(Nc2nn(-c3ccc(OC(F)(F)F)cc3)nc2C(C)=O)cc1`, for which the survival was inactive: 86%.

Take `Cc1cc(C(=O)NCc2ccccc2)c2c(C)nn(-c3cccc(F)c3)c2n1`: the survival was inactive: 55%.

In the case of `COc1cc(Nc2nc(SCC(=O)c3ccc(Cl)c(Cl)c3)nc3ccccc23)cc(OC)c1`, the survival was inactive: 83%.

For `O=C(CCC1N=C2c3ccccc3N=C(SCC(=O)Nc3ccc(F)cc3)N2C1=O)NCc1ccco1` (stereo unspecified), the survival was inactive: 112%.

(Values after PubChem BioAssay AID463173 (ICCB-Longwood Screening Facility, Harvard Medical School, 2010).)
